Structures can show the parent of a compound that is named as a salt. ± gives the standard deviation of the averaged measurements. In all, about 2,000 compounds were measured (“relative cell viability vs DMSO, compound alone”: median about 1.1, lowest 2% from about 0.29 on). Some of the results follow.
System: TE10
Assay: relative cell viability vs DMSO, compound alone (fraction); TE10 is an esophageal squamous carcinoma line; higher = less cytotoxic
Settings: 2 µM; 48 h
Method: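 TE10 ESCC cells (1,000/well, 384-well plates) were treated with Selleck bioactive library compounds at 2 uM alone for 48 h. Viability was read by CellTiter-Glo and expressed relative to DMSO wells. Two technical replicates (A, B).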

Row | SMILES | relative cell viability
1 | CCNC(=O)CCC/C=C\C[C@@H]1[C@@H](/C=C/[C@@H](O)CCc2ccccc2)[C@H](O)C[C@@H]1O [Bimatoprost] | 1.134 ± 0.005
2 | Nc1nc2c(ncn2COCCO)c(=O)[nH]1 [Aciclovir] | 1.06 ± 0.045
3 | COc1ccc2[nH]c([S@@+]([O-])Cc3ncc(C)c(OC)c3C)nc2c1 [Esomeprazole Sodium] | 1.15 ± 0.057
4 | COc1ccc2[nH]c([S@@+]([O-])Cc3ncc(C)c(OC)c3C)nc2c1 [Esomeprazole Magnesium] | 1.2 ± 0.017
5 | CC(C)NCC(O)c1ccc(O)c(O)c1 (configuration not stated) [Isoprenaline HCl] | 1.01 ± 0.019
6 | CS(=O)(=O)N1CCN(Cc2cc3nc(-c4cccc5[nH]ncc45)nc(N4CCOCC4)c3s2)CC1 | 0.483 ± 0.0077
7 | NC1CC1c1ccc(-c2cccc(O)c2)cc1 (configuration not stated) | 1.09 ± 0.03
8 | COc1c(N2C[C@@H]3CCCN[C@@H]3C2)c(F)cc2c(=O)c(C(=O)O)cn(C3CC3)c12 [Moxifloxacin HCl] | 1.18 ± 0.016
9 | CC(=O)OCC(=O)[C@@]1(O)[C@H](C)C[C@H]2[C@@H]3CCC4=CC(=O)C=C[C@]4(C)[C@@]3(F)[C@@H](O)C[C@@]21C [Dexamethasone Acetate] | 0.868 ± 0.012
10 | COc1ccc(C(=O)CC(=O)c2ccc(C(C)(C)C)cc2)cc1 [Avobenzone] | 1.14 ± 0.063
11 | CCOC(=O)C1=C(C)NC(C)=C(C(=O)OCC)C1c1ccccc1/C=C/C(=O)OC(C)(C)C [Lacidipine] | 0.993 ± 0.065
12 | CCOc1cc(CC(=O)N[C@@H](CC(C)C)c2ccccc2N2CCCCC2)ccc1C(=O)O [Repaglinide] | 1.15 ± 0.16
13 | O=C(O)C(Cc1c[nH]c2ccccc12)N1C(=O)c2ccccc2C1=O (configuration not stated) | 0.692 ± 0.032
14 | COc1cc(F)c(F)c(Nc2ccc(I)cc2F)c1NS(=O)(=O)C1(C[C@H](O)CO)CC1 [Refametinib (RDEA119, Bay 86-9766)] | 0.9425 ± 0.0049
15 | C#C[C@]1(O)CC[C@H]2[C@@H]3CCc4cc(O)ccc4[C@H]3CC[C@@]21C [Ethinyl Estradiol] | 1.07 ± 0.03
16 | CC#CC(=O)Nc1ccc2ncnc(Nc3cccc(Br)c3)c2c1 | 0.773 ± 0.043
17 | O=S(=O)(c1ccccc1)N(CC(F)(F)F)c1ccc(C(O)(C(F)(F)F)C(F)(F)F)cc1 | 1.1 ± 0.037
18 | CCCCN(Cc1ccc(C(=O)NO)cc1)C(=O)Nc1ccccc1 [Nexturastat A] | 0.716 ± 0.074
19 | COC(=O)N[C@H](C(=O)N1CCC[C@H]1c1ncc(-c2ccc(-c3ccc(-c4cnc([C@@H]5CCCN5C(=O)[C@@H](NC(=O)OC)C(C)C)[nH]4)cc3)cc2)[nH]1)C(C)C | 1.05 ± 0.11
20 | C=C1CC2(O)OC3(CC2C(C)C)C(C)CCC13 (configuration not stated) [Curcumol] | 0.93 ± 0.042
21 | CCOC(=O)c1ncn2c1CN(C)C(=O)c1cc(F)ccc1-2 [Flumazenil] | 0.9985 ± 0.0051
22 | CNC(=O)c1ccccc1Nc1nc(Nc2ccc(N3CCOCC3)cc2OC)ncc1Cl | 0.758 ± 0.071
23 | CC1=C(C(=O)Nc2cc3cn[nH]c3cc2F)C(c2ccc(C(F)(F)F)cc2)CC(=O)N1 (configuration not stated) | 1.24 ± 0.015
24 | Cc1cc(C)c2c(c1)[C@@H](N(Cc1cc(C(F)(F)F)cc(C(F)(F)F)c1)c1nnn(C)n1)CCCN2C[C@H]1CC[C@H](C(=O)O)CC1 | 1.13 ± 0.018

Row | SMILES | relative cell viability
25 | CCCC1O[C@@H]2C[C@H]3[C@@H]4CCC5=CC(=O)C=C[C@]5(C)[C@H]4[C@@H](O)C[C@]3(C)[C@]2(C(=O)CO)O1 (some centres not stated) [Budesonide] | 1.11 ± 0.033
26 | COc1cc(C(C)=O)ccc1OCCCN1CCC(c2noc3cc(F)ccc23)CC1 [Iloperidone] | 1.24 ± 0.018
27 | CCOC(=O)[C@H](CCc1ccccc1)N[C@H]1CCCN2CCC[C@@H](C(=O)O)N2C1=O [Cilazapril Monohydrate] | 1.011 ± 0.004
28 | COc1ccc(/C=C\c2cc(OC)c(OC)c(OC)c2)cc1O [Combretastatin A4] | 1.04 ± 0.017
29 | c1cc(-c2cnn3cc(-c4ccc(N5CCNCC5)cc4)cnc23)c2cccnc2c1 | 0.0982 ± 0.0034
30 | NCCCC[C@@H]1NC(=O)[C@@H](Cc2ccccc2)NC(=O)[C@H](CC(=O)O)NC(=O)CNC(=O)[C@H](CCCN=C(N)N)NC1=O [Cyclo (-RGDfK)] | 1.1 ± 0.024
31 | CS(=O)(=O)c1ccc(-c2cnc(N)c(C(=O)Nc3ccccc3)n2)cc1 | 0.897 ± 0.19
32 | NS(=O)(=O)c1cc(Cl)c(Cl)c(S(N)(=O)=O)c1 [Dichlorphenamide] | 1.202 ± 0.0028
33 | O=C(Oc1ccccc1C(=O)O)c1ccccc1O [Sasapyrine] | 1.1 ± 0.026
34 | COc1c(C)c2c(c(O)c1C/C=C(\C)CCC(=O)O)C(=O)OC2 [Mycophenolic acid] | 0.805 ± 0.028
35 | O=C(O)C1=CO[C@@H](O[C@@H]2O[C@H](CO)[C@@H](O)[C@H](O)[C@H]2O)[C@@H]2C(CO)=CC[C@H]12 [Geniposidic acid] | 1.033 ± 0.008
36 | C[C@H](Cc1cc2c(c(C(N)=O)c1)N(CCCO)CC2)NCCOc1ccccc1OCC(F)(F)F [Silodosin] | 1.06 ± 0.12
37 | CN(C)CCOc1ccc(-c2nc(-c3ccncc3)c(-c3ccc4c(c3)CC/C4=N\O)[nH]2)cc1 | 1.27 ± 0.03
38 | Cc1ccc(-n2sc(=O)n(Cc3ccc(F)cc3)c2=O)cc1 | 1.02 ± 0.11
39 | Cc1cc(Cl)ccc1OCCCC(=O)NO [Droxinostat] | 1.2 ± 0.12
40 | O=C(NCCN1CCOCC1)c1ccc(Cl)cc1 | 1.17 ± 0.095
41 | C/C(=C\C(=O)Nc1ccccc1C(=O)O)c1ccc2ccccc2c1 | 1.19 ± 0.044
42 | O=C(c1ccc(/C=C/c2n[nH]c3ccccc23)cc1)N1CCNCC1 | 0.766 ± 0.045
43 | Nc1c(CC(=O)O)cccc1C(=O)c1ccc(Br)cc1 [Bromfenac Sodium] | 1.09 ± 0.046
44 | Cc1c(C(=O)Nc2ccc(N3CCC(N4CCOCC4)CC3)c(C#N)c2)cnn1-c1ccc(Cl)cc1 | 1.08 ± 0.024
45 | C[C@H]1O[C@@H](n2cc(F)c(=O)[nH]c2=O)[C@H](O)[C@@H]1O [Doxifluridine] | 1.02 ± 0.031
46 | CC(C)(C)c1nc(-c2cccc(NS(=O)(=O)c3c(F)cccc3F)c2F)c(-c2ccnc(N)n2)s1 | 1.12 ± 0.033
47 | CC1(C)CC[C@]2(C(=O)O)CC[C@]3(C)C(=CC[C@@H]4[C@@]5(C)CC[C@H](O)C(C)(C)[C@@H]5CC[C@]43C)[C@@H]2C1 [Oleanolic Acid] | 1.16 ± 0.034
48 | O=C(O)CCCCC(CCSCc1ccccc1)SCc1ccccc1 (configuration not stated) | 1.166 ± 0.0081

Row | SMILES | relative cell viability
49 | O=c1c(-c2ccc(O)cc2)coc2cc(O)ccc12 [Daidzein] | 0.851 ± 0.038
50 | C[C@@H](O)[C@H]1C(=O)N2C(C(=O)O)=C(S[C@@H]3CN[C@H](C(=O)N(C)C)C3)[C@H](C)[C@H]12 [Meropenem] | 1.09 ± 0.068
51 | Cn1nnc(-c2ccc3c(c2)[nH]c2nc(Cc4ccccc4)nc(NC4CCC(N)CC4)c23)n1 (configuration not stated) | 1.143 ± 0.0065
52 | CC(=O)O[C@H]1C[C@@H]2CC[C@@H]3[C@H](CC[C@@]4(C)[C@H]3C[C@H]([N+]3(C)CCCCC3)[C@@H]4OC(C)=O)[C@@]2(C)C[C@@H]1N1CCCCC1 [Vecuronium Bromide] | 1.17 ± 0.097
53 | CC1(C)O[C@@H]2C[C@H]3[C@@H]4CCC5=CC(=O)CC[C@]5(C)[C@@]4(F)[C@@H](O)C[C@]3(C)[C@]2(C(=O)CCl)O1 [Halcinonide] | 0.816 ± 0.11
54 | C[C@]12C=CC(=O)C=C1CC[C@H]1[C@@H]3C[C@@H](O)[C@](O)(C(=O)CO)[C@@]3(C)C[C@H](O)[C@@]12F [Triamcinolone] | 0.9665 ± 0.0039
55 | N#Cc1ccc(COC[C@H]2O[C@@H](n3c(NCc4ccc(Cl)c(Cl)c4)nc4c(N)ncnc43)[C@H](O)[C@@H]2O)cc1 | 0.991 ± 0.04
56 | C[C@@H]1O[C@@H](OC[C@H]2O[C@@H](Oc3c(-c4ccc(OCCO)c(OCCO)c4)oc4cc(OCCO)cc(O)c4c3=O)[C@H](O)[C@@H](O)[C@@H]2O)[C@H](O)[C@H](O)[C@H]1O [Troxerutin] | 1.11 ± 0.047
57 | CCN(CC)C(=O)/C(C#N)=C/c1cc(O)c(O)c([N+](=O)[O-])c1 [Entacapone] | 0.892 ± 0.017
58 | OC(c1cc(C(F)(F)F)nc2c(C(F)(F)F)cccc12)C1CCCCN1 (configuration not stated) [Mefloquine HCl] | 1.09 ± 0.11
59 | Cc1coc2c1C(=O)C(=O)c1c-2ccc2c1CCCC2(C)C [Tanshinone IIA] | 0.545 ± 0.0096
60 | CC[C@H]1OC(=O)C[C@@H](O)[C@H](C)[C@@H](O[C@@H]2O[C@H](C)[C@@H](O)[C@H](N(C)C)[C@H]2O)[C@@H](CCN2C[C@H](C)C[C@H](C)C2)C[C@@H](C)C(=O)/C=C/C(C)=C/[C@@H]1CO[C@@H]1O[C@H](C)[C@@H](O)[C@@H](OC)[C@H]1OC [Tilmicosin] | 1 ± 0.039
61 | CNCCCC12CCC(c3ccccc31)c1ccccc12 [Maprotiline HCl] | 1.104 ± 0.011
62 | CCc1c(O)cc(O)c(C(=O)c2ccc(OCCN3CCOCC3)c(OC)c2)c1CC(=O)N(CCOC)CCOC | 0.546 ± 0.009
63 | CN(C)Cc1cccc(N=C(c2ccccc2)c2c(O)[nH]c3cc(C(=O)N(C)C)ccc23)c1 | 0.903 ± 0.035
64 | O=c1cc(-c2ccccc2)oc2cc(O)c(O)c(O)c12 [Baicalein] | 1.04 ± 0.011
65 | COc1cc(C2Oc3cc([C@H]4Oc5cc(O)cc(O)c5C(=O)[C@@H]4O)ccc3OC2CO)ccc1O (some centres not stated) [Silymarin] | 0.976 ± 0.13
66 | COc1cc(C2Oc3cc([C@H]4Oc5cc(O)cc(O)c5C(=O)[C@@H]4O)ccc3OC2CO)ccc1O (some centres not stated) [Silibinin] | 1.12 ± 0.017
67 | CC(=O)N[C@@H](CS)C(=O)O [Acetylcysteine] | 1.03 ± 0.031
68 | C[C@]1(c2nc3c(C(N)=O)cccc3[nH]2)CCCN1 [Veliparib (ABT-888)] | 1.02 ± 0.18
69 | O=C(O)Cc1cccc(OCCCN(Cc2cccc(C(F)(F)F)c2Cl)CC(c2ccccc2)c2ccccc2)c1 | 1.15 ± 0.052
70 | COc1cccc2cc(-c3nc([C@H]4CC[C@H](C(=O)O)CC4)n4ncnc(N)c34)[nH]c12 | 0.667 ± 0.0089
71 | O=C1CCC[C@@H]2[C@H]3CCC[N+]4([O-])CCC[C@@H](CN12)[C@@H]34 (some centres not stated) [Oxymatrine] | 0.93 ± 0.12
72 | CCN(CC)CCOC(=O)c1ccc(N)cc1 [Procaine HCl] | 1.16 ± 0.077

— the supplement of paper PMC10670038
